# Among all 370,000 compounds or so, about 500 (0.14%) were called active. This list was built around the results that the source calls inconclusive (neither active nor inactive); the mix of calls is not that of the screen. The call rests on the fitted dose curve; in most records, active means well fitted activation curve with a large enough effect; inconclusive means small, poorly fitted or top-dose-only effect; inactive means no such curve, though single readings can be large or run the other way. Potencies of inconclusive entries are left out as doubtful fits.
# Assay: qHTS of alpha-syn Inhibitors; further: nearly all actives have a fitted effect of over 65% in size; on growth rescue (activation): % of control where 0% means no effect
# Conditions: Yeast expressing alpha-synuclein, BacTiter-Glo, 24 h; Potency: growth rescue unless noted; growth rescue (activation): at 46.1 µM (top of the series) unless noted
# Procedure, shortened: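 Rescue of yeast growth: cells expressing toxic alpha-synuclein, induced in galactose at OD600 0.02, incubated with compound 24 h at 30 C. ATP luminescence quantified growth; inhibitors of toxicity appear as activators.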
# Potency means the concentration at half of the fitted maximal effect; tags describe the fitted curve by direction and shape.
SMILES,Potency,growth rescue (activation)
COc1cccc2cc(-c3ccccc3)c(=O)oc12,"inconclusive [activator, single point]",
C[N+]1(CC(=O)c2ccc3c(c2)CCCC3)CCOCC1,"inconclusive [activator, single point]",
O=P(C(=S)Nc1ccccc1Cl)(c1ccccc1)c1ccccc1,"inconclusive [activator, single point]",
CC1=CC(C)(C)N(C(=O)CSc2nnc(-c3ccc(C)cc3)o2)c2ccc(C)cc21,"inconclusive [activator, full curve]",
CCCCc1c(-c2cccc(OC)c2)ncn1CCc1ccccc1OC,"inconclusive [activator, single point]",
O=C(NCC1CCCO1)c1ccccc1NS(=O)(=O)c1cccc([N+](=O)[O-])c1 (configuration not stated),"inconclusive [activator, single point]",
C[C@@H]1CN([C@@H](C)CO)C(=O)c2cc(C#Cc3ccccc3)cnc2O[C@H]1CN(C)C(=O)c1ccccc1F,,inactive: 0%
O=C(COc1ccc2ccccc2c1)N1CCN(c2ccccc2O)CC1,"inconclusive [activator, single point]",
COc1ccccc1OCC(=O)NNC(=S)NC(=O)c1ccco1,"inconclusive [activator, partial curve, poor fit]",
COCCn1c(C)cc(C(=O)CSc2nc(C)cc(C)c2C#N)c1C,"inconclusive [activator, single point]",
O=C(Cc1ccc(Cl)cc1)Nc1nnc2n1CCS2,"inconclusive [activator, single point]",
COc1cccc(C(O)c2nc(-c3ccc(C)c(C)c3)cs2)c1 (configuration not stated),"inconclusive [activator, partial curve]",
Nc1nc2c(ncn2[C@@H]2O[C@H](CNCC3=Cc4cc(O)ccc4OC3)[C@@H](O)[C@H]2O)c(=O)[nH]1,"inconclusive [activator, single point]",
O=C(CN1c2ccccc2S(=O)(=O)c2ccccc21)NCc1ccc(F)cc1,"inconclusive [activator, single point]",
CCOC(=O)c1c(NC(=O)CSc2nnc(-c3ccncc3)n2Cc2ccco2)sc(C)c1C,"inconclusive [activator, partial curve]",
O=C(NC(=S)N1CCN(c2ccc(Cl)cc2[N+](=O)[O-])CC1)c1cccs1,"inconclusive [activator, single point]",
C=CCN(CC=C)S(=O)(=O)c1ccc2nc(NC(=O)C(C)C)sc2c1,"inconclusive [activator, single point]",

# From PubChem BioAssay AID652106 (National Center for Advancing Translational Sciences (NCATS), 2013)
